In all, about 33,000 sequences were measured (“E-score (-0.5 to 0.5)”: median about -0.035, highest 2% from about 0.34 on). The list shows a part of the results.

This assay has as its target T1, Mot3 (UniProt P54785).
T1 sequence: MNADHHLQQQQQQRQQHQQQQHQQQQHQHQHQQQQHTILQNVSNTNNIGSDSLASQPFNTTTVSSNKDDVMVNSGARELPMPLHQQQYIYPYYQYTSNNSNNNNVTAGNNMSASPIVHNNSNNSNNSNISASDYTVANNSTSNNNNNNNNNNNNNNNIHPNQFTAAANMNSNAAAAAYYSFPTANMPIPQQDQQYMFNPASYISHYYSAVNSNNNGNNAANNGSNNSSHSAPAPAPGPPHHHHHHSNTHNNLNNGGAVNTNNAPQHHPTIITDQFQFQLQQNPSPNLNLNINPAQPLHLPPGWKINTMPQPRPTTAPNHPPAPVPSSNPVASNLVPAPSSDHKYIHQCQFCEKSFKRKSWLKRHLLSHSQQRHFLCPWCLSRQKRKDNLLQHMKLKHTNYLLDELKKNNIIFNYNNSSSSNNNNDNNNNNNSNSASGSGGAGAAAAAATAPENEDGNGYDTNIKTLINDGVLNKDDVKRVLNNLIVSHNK
The experiment in a line: PBM E-score (8-mer binding enrichment) (E-score (-0.5 to 0.5)); higher = stronger / more preferred TF binding; most listed sequences are background and not binding sites. The settings on record: protein concentration: 200 nM; construct: GST-full length. An outline of the steps: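 Each ungapped eight-base word and its reverse complement, pooled, received an E-score from the Universal PBM Analysis Suite. Underlying scans, normalised with masliner, recorded fluorescent anti-GST bound to GST-tagged yeast transcription factors. These were applied at about 100-200 nM to universal all-10-mer Agilent arrays double-stranded by primer extension.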
For ATCACGAC, the “PBM E-score” value is -0.113.

As to GCACTTGA, the “PBM E-score” value was 0.051. Under CGTATCAA stands -0.144; under AACAATAG, 0.12; under CTGATCAG, 0.00245. Under CACATGTC stands 0.196; under ACATAAGA, 0.284. For ATTGTCGA, the “PBM E-score” value is -0.0491.

Consider AATGCAGG, for which the “PBM E-score” value was determined as 0.262.

In the case of TGATTCCA, the “PBM E-score” value was 0.0225.

As to ACACCTTA, the “PBM E-score” value turned out to be 0.157.

Turning to ATGCGCTC, the “PBM E-score” value is -0.0382.

As for AACAGACA, the “PBM E-score” value was 0.144. The same measure for AGATGCAA: -0.0384; for AACAGCAG: 0.0558. With GACAGACC, the “PBM E-score” value was -0.169. The same measure for CAATTCCG: -0.132; for CACTTATG: -0.00281. The same measure for GACCCAGA: -0.155. The same measure for CCCGAAGC: -0.161; for TACTGCCA: -0.0386; for AGAGTCCT: -0.17. Consider GATCCTGC, for which the “PBM E-score” value was found to be 0.0913. The same measure for ACCAGAGT: -0.0443; for CGCGGGAG: -0.344. Under TCTTCTCA stands -0.064; under ATTAAAAC, 0.197. The same measure for GCGCCAAC: -0.117; for GTGGCACA: -0.137. With AGGTTGGC, the “PBM E-score” value was -0.22.

On to ATGCGCCG, for which the “PBM E-score” value is -0.131. Under CAGGAGCC stands 0.0966; under AGTGCGCA, -0.234. Under ACTACGAT stands -0.0182.

For the sequence CTGGTTCC, the “PBM E-score” value was found to be 0.264.

On to GCCGGCGC, for which the “PBM E-score” value was -0.166. Under CTTTTTTC stands 0.154; under CCGATGAA, -0.0796. Turning to TAGCCCGA, the “PBM E-score” value was -0.203. The same measure for AGTGTACC: -0.0469; for GGGCGGCA: -0.262. The same measure for CTGAATCC: -0.0061. Take ACTTAGGG: the “PBM E-score” value was -0.0371. On to AAAGATTG, for which the “PBM E-score” value was -0.0495. Turning to CGGTTTGC, the “PBM E-score” value turned out to be 0.00094. Under CATGGTGC stands -0.0103. The same measure for GTCATTTA: 0.0594; for AGCCTCAG: -0.186; for AGGAATCG: -0.0247. Under CCGAGCGG stands -0.262; under ACCGCGAT, -0.134; under AGGCGATC, -0.113.

On to AAGATCCC, for which the “PBM E-score” value is -0.183. The same measure for ATTACACA: 0.438; for GAGTTCAA: 0.163. The same measure for CCACATGC: -0.0192; for GGATGAGA: -0.207. Regarding CGTGGTGC, the “PBM E-score” value was -0.0426.

For ATTGGTGA, the “PBM E-score” value is -0.138. On to CATCGTCC, for which the “PBM E-score” value is -0.0649.

Regarding GCGGCCGA, the “PBM E-score” value is -0.27. In the case of CAGGAGCA, the “PBM E-score” value was -0.167. Under AGCGACTG stands 0.0488; under TAAATAGA, 0.0128. Under ACACAGCA stands 0.291; under AAGACTGC, -0.243; under AAGTTTAG, 0.0474. Take CACCGCGC: the “PBM E-score” value is -0.188. The same measure for AGGGTTTG: -0.0138; for CGGTTTGA: -0.0327. Under ATTCTGAA stands -0.0991; under ATCACACG, 0.283. As to CGCGTGCC, the “PBM E-score” value came to 0.433. Under CAGAAGAC stands -0.0819; under AGGTCCAG, -0.084.

Take TAGCCCCA: the “PBM E-score” value is -0.196.

As to ACCATATG, the “PBM E-score” value was 0.0136. With CTGCTCGA, the “PBM E-score” value was -0.152.

Turning to AAACTCGA, the “PBM E-score” value was -0.105. The same measure for ACACATGG: 0.144. Under CCCCCTCC stands -0.101; under GTGAGGCA, 0.353; under CTAAGGAA, 0.366. With GGAGAAGA, the “PBM E-score” value was -0.165. As for TCCCCTCA, the “PBM E-score” value was 0.0167. On to AAGTCCCT, for which the “PBM E-score” value was -0.139. The same measure for GCGTTTAC: 0.186.

For CGCCGTAA, the “PBM E-score” value was -0.0859. The same measure for CTTTGCTA: 0.163; for ACCATGTA: 0.404. The same measure for ATTTGGTG: -0.0257; for ATTCCGTA: 0.0207; for ATCACCGG: 0.00681. Under CTCGCCAA stands -0.0783. As for CCGCATAG, the “PBM E-score” value was determined as 0.00725.

For GCTTAAAC, the “PBM E-score” value was -0.0858.

AAACCATT: the “PBM E-score” value was -0.169. Under GTAATGAA stands 0.205; under AGGAGCAG, -0.226.

CATTACTC: the “PBM E-score” value is 0.0851. The same measure for ATGTGCCC: 0.158; for GAGAACGC: -0.0649; for CCTGAGTC: -0.301.

Take GACCATAA: the “PBM E-score” value was -0.178. Regarding CGCGTACA, the “PBM E-score” value amounted to 0.201. Under AGTGCGTC stands -0.218; under CGTAGACC, -0.158. With TAAAGGAA, the “PBM E-score” value turned out to be 0.383. Take ATGCGTGA: the “PBM E-score” value was determined as 0.0754.

As for ATGCTGTC, the “PBM E-score” value was -0.101.

Source of the values: the supplement of paper PMC3334620.
